# Laboratory results: PubChem BioAssay AID485294 (National Center for Advancing Translational Sciences (NCATS), 2010)
# The whole screen tested about 370,000 compounds, of which about 150 (0.041%) were called active. The inconclusive results got no clear call from the source; some entries with a clear call stand among them for comparison. The call rests on the fitted dose curve; in most records, active means well fitted inhibition curve with a large enough effect; inconclusive means small, poorly fitted or top-dose-only effect; inactive means flat fitted curve, though single readings scatter. Potencies of inconclusive entries are left out as doubtful fits.
# Target: Beta-lactamase (Escherichia coli (strain K12)) (UniProt P00811)
# Chain of UniProt P00811 (P00811 whole entry, looked up): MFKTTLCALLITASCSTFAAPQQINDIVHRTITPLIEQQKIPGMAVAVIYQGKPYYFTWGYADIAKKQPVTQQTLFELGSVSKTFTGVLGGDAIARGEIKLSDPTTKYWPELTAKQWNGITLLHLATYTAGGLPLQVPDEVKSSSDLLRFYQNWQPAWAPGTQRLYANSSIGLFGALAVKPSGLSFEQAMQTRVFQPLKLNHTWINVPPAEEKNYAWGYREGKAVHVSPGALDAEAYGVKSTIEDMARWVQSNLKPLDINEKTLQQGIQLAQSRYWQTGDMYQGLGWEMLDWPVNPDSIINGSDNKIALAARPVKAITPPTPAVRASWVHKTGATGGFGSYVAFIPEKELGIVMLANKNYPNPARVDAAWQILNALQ
# Assay: qHTS Inhibitors of AmpC Beta-Lactamase (assay with detergent); further: nearly all actives have a fitted effect of over 25% in size;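 on activity change, negative = inhibition: 0% = no-compound wells and -100% = no-enzyme wells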
# Details: AmpC hydrolysis of nitrocefin, absorbance 480 nm, 0.01% Triton; activity change, negative = inhibition: at 114 µM (top of the series)
# Outline: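 20 mM phosphate pH 7.0 + 0.01% (detergent screen) or 0.0001% Triton X-100; 5.3 nM AmpC reagent; cpd preinc 15 min RT; nitrocefin (800 uM stock) to start; A480 q20 s × 4 min; Activity was normalised to no-enzyme and no-compound control wells.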
# Potency means the concentration at half of the fitted maximal effect; tags describe the fitted curve by direction and shape.
Structure (SMILES),"activity change, negative = inhibition",Potency
Cc1ccc(S(=O)(=O)N2CCN(CC(O)c3ccccc3)CC2)cc1 (stereo not drawn),inactive: -3.72%,
COc1ccc(CCNC(=O)COC(=O)c2ccc(Br)o2)cc1,,"inconclusive [inhibitor, full curve, poor fit]"
CCOC(=O)c1[nH]cnc1C(=O)NC1CCCCC1,,"inconclusive [inhibitor, single point]"
NC(=S)Cc1ccc(Cl)cc1Cl,inactive: 4.27%,
COc1cc(C(=O)NNC(=O)C2CC=CCC2C(=O)O)cc(OC)c1OC (stereo not drawn),,"inconclusive [inhibitor, single point]"
NS(=O)(=O)c1ccc(NC(=O)Cn2ncc3c2-c2ccccc2OC3)cc1,,"inconclusive [inhibitor, partial curve]"
CCOC(=O)N1CCC(NC(=O)CC(NS(=O)(=O)c2ccc(Cl)cc2)c2ccco2)CC1 (stereo not drawn),,"inconclusive [inhibitor, partial curve]"
O=c1oc2ccccc2cc1NCc1ccccc1O,inactive: 5.9%,
O=C(O)c1ccc(C(=O)Nc2ccc(F)cc2)cc1,,"inconclusive [inhibitor, partial curve]"
CCOc1cc(C2CC(=O)Nc3c2c(=O)nc(SCc2cccc(Cl)c2)n3C)ccc1O (stereo not drawn),inactive: 1.9%,
O=C(CSc1ccccc1C(=O)O)c1ccc(Cl)cc1,inactive: -5.19%,
CCOC(=O)N1CCN(c2ccccc2O)CC1,,"inconclusive [inhibitor, full curve, poor fit]"
COc1ccc(N2CCN(C(=O)CC(NC(N)=O)c3cccc(Oc4ccccc4)c3)CC2)cc1 (stereo not drawn),,"inconclusive [inhibitor, full curve, poor fit]"
CCOc1ccc(CN(C)C(=O)c2cc(S(=O)(=O)N3CCCC3)ccc2C)cc1,inactive: -4.3%,
O=C(NCCSCc1c(F)cccc1Cl)c1ccco1,inactive: 10.7%,
COc1cc(NC(=O)COC(=O)CNS(=O)(=O)c2ccc(F)c(F)c2F)cc(OC)c1,,"inconclusive [inhibitor, full curve, poor fit]"
Cc1ccc(NC(=O)Cn2cc(C(=O)c3ccco3)c3ccccc32)c(C)c1,inactive: -3.55%,
CN(C(=O)CSc1nnc(-c2ccc(OC(F)F)cc2)n1N)C1CCS(=O)(=O)C1 (stereo not drawn),,"inconclusive [inhibitor, full curve, poor fit]"
CC(C)(C)c1nc(SCC(=O)NCc2ccco2)c2ccccc2n1,,"inconclusive [inhibitor, partial curve, poor fit]"
CC(=O)Nc1ccccc1OC(C)C(=O)N1CCC(C)CC1 (stereo not drawn),,"inconclusive [inhibitor, full curve, poor fit]"
COC(=O)C(C)NC(=O)C(C)NC(=O)OCc1ccccc1 (stereo not drawn),,"inconclusive [inhibitor, full curve, poor fit]"
COc1ccc(CCn2c(N)c(S(=O)(=O)c3cccs3)c3nc4ccccc4nc32)cc1OC,inactive: -3.2%,
Cc1ccccc1C(=O)Nc1nc(=S)ss1,,"inconclusive [inhibitor, single point]"

Structure (SMILES),"activity change, negative = inhibition",Potency
CNC(=O)COc1coc(CN2CCN(c3ccc(OC)cc3)CC2)cc1=O,inactive: -3.65%,
O=c1c(C(c2ccccc2)c2c(O)nc3n(c2=O)CCS3)c(O)nc2n1CCS2,,"inconclusive [inhibitor, full curve]"
CC(NS(=O)(=O)c1c(N)n(C)c(=O)n(C)c1=O)c1ccccc1 (stereo not drawn),inactive: -13.3%,
CCn1cc(/C=C(\NC(=O)c2ccccc2F)C(=O)N2CCOCC2)c2ccccc21,,"inconclusive [inhibitor, partial curve]"
O=c1[nH]c2cc3c(cc2cc1C(c1nnnn1Cc1ccccc1)N1CCCCCC1)OCCO3 (stereo not drawn),,"inconclusive [inhibitor, full curve, poor fit]"
CSc1ccc(Cn2nnc(C(=O)NCc3ccccc3)c2N)cc1,,"inconclusive [inhibitor, full curve]"
COC(=O)COc1ccc(/C=C2\C(=O)NC(=S)N(c3ccc(C)cc3)C2=O)cc1OC,inconclusive: -17.9% [inhibitor],
COc1cc(C(=O)NCC(=O)OCC(=O)Nc2nnc(-c3ccccc3)o2)cc(OC)c1OC,,"inconclusive [inhibitor, full curve, poor fit]"
CCN1C(=O)[C@@H]2[C@@H](c3ccc(-c4ccccc4)cc3)N3CCCC[C@@]3(C(=O)OC)[C@@H]2C1=O,,"inconclusive [inhibitor, partial curve]"
COc1cc(C)ccc1OCCSc1nc2ccc(NC(=O)c3cccs3)cc2s1,inactive: 6.08%,
COc1ccc(CCNC(=O)Cn2c(-c3nonc3N)nc3ccccc32)cc1OC,,"inconclusive [inhibitor, partial curve, poor fit]"
Cc1ccc(-c2nc3cc(N)ccc3o2)c(C)c1,inactive: -0.174%,
Cc1c(NC(=O)OC(C)C)sc(=S)n1C,,"inconclusive [inhibitor, partial curve, poor fit]"
CC(C)Cn1c(C(C)C)nc([N+](=O)[O-])c1Sc1ccc(Cl)cn1,,"inconclusive [inhibitor, partial curve, poor fit]"
Cc1c(Cl)ccc2sc(NC(=O)CN3C(=O)c4ccccc4C3=O)nc12,,"inconclusive [inhibitor, partial curve, poor fit]"
Cc1ccc(NC(=O)COC(=O)c2ccc(Cl)cc2)cc1S(=O)(=O)N(C)C,inactive: 5.91%,
O=C(NCc1ccccc1)NC1(C(=O)N2CCCC2)CCCCC1,,"inconclusive [inhibitor, full curve, poor fit]"
COc1ccc(CCNC(=O)c2ccc(-c3ccc([N+](=O)[O-])cc3Cl)o2)cc1OC,,"inconclusive [inhibitor, full curve, poor fit]"
CCC(=O)c1cccc2c1N=CC1=C(CC(C)(C)CC1=O)N2,,"inconclusive [inhibitor, single point]"
Cc1ccc(S(=O)(=O)NC(=O)Nc2cc(C)on2)cc1,,"inconclusive [inhibitor, single point]"
Cc1ccc(NC(=O)c2nccnc2C(=O)O)cc1C,,"inconclusive [inhibitor, partial curve, poor fit]"
Cc1cc(C)n(CC(O)COc2ccc(Cl)cc2Cl)n1 (stereo not drawn),,"inconclusive [inhibitor, single point]"
COc1cc(CN2CCCC(C(=O)c3ccc(C(C)(C)C)cc3)C2)cc(OC)c1O (stereo not drawn),,"inconclusive [inhibitor, full curve, poor fit]"

Structure (SMILES),"activity change, negative = inhibition",Potency
O=C(Nc1ccc2oc(-c3ccccc3)nc2c1)c1ccc2c(c1)OCCO2,,"inconclusive [inhibitor, single point]"
CCOC(=O)c1cc(-c2ccc(OC)cc2)n(CCC(=O)Nc2cccc(C(C)=O)c2)c1C,inactive: 3.57%,
Cc1ccnc(NC(=O)c2cc(-c3ccc(Cl)s3)nc3ccccc23)c1,,"inconclusive [inhibitor, full curve, poor fit]"
CN(C)S(=O)(=O)c1ccc(N2CCCC2)c(C(=O)N2CCN(S(=O)(=O)c3ccccc3F)CC2)c1,,"inconclusive [inhibitor, partial curve, poor fit]"
Cc1ccc(-n2c(COc3c(C)cccc3C)nnc2SCC(=O)Nc2nccs2)cc1,,"inconclusive [inhibitor, full curve, poor fit]"
CNC(=S)N1N=C(c2ccc(OC)cc2)CC1c1ccc(Cl)cc1Cl (stereo not drawn),inactive: -0.179%,
Cc1ccc(CNC(=O)CN2C(=O)CSc3ccc(S(=O)(=O)N4CCCC4)cc32)cc1,inactive: 12.6%,
CCCCCn1c(=O)c(Cc2ccccc2)c(O)c2ccccc21,,"inconclusive [inhibitor, full curve, poor fit]"
O=C(COC(=O)c1ccc(Br)cc1)NCCc1ccccc1,,"inconclusive [inhibitor, full curve, poor fit]"
CCCCCCCCCCOC(=O)c1csc2nnsc12,,"inconclusive [inhibitor, partial curve]"
Cc1ccc(N2C(=O)CSC23C(=O)N(CC(=O)Nc2ccc(C)cc2C)c2ccccc23)cc1 (stereo not drawn),inactive: 0.141%,
CCOc1ccc(C(=O)NC2CC3CCCC(C2)N3Cc2ccccc2)cc1 (stereo not drawn),,"inconclusive [inhibitor, partial curve]"
N#C/C(=C\c1ccc(Cl)cc1)c1nc2ncccc2[nH]1,,"inconclusive [inhibitor, partial curve, poor fit]"
Cn1c(Cc2cccs2)nnc1SCC(=O)N1CCCc2ccccc21,,"inconclusive [inhibitor, single point]"
CCOc1ccc(-n2c(C)nc3c(cnn3-c3ccc(Cl)cc3)c2=O)cc1,inactive: -1.69%,
Cc1ccc(NC(=O)C(=O)NCCN2CCN(Cc3ccc([N+](=O)[O-])cc3)CC2)cc1,inactive: -8.69%,
CCc1cccc(C)c1NC(=O)c1nc2ccccc2nc1N1CCCCC1,inactive: -0.121%,
Cc1ccc(/C=C/C(=O)NCc2ccccn2)o1,inactive: -6.68%,
CC(C)N1CC=C2C(C#N)=C(N)C(C#N)(C#N)C(c3ccccc3)C2C1 (stereo not drawn),,"inconclusive [inhibitor, full curve, poor fit]"
O=C(/C(=C/c1ccccc1Cl)c1ccccc1)N1CCOCC1,,"inconclusive [inhibitor, single point]"
CCCCn1c(N)c(N(CC)C(=O)CSCc2c(C)noc2C)c(=O)[nH]c1=O,,"inconclusive [inhibitor, full curve]"
O=C(Nc1ccc(N2CCCC2)c(Cl)c1)c1cccnc1,,"inconclusive [inhibitor, partial curve]"
